Data on 49 cell lines can be found in the supplement of paper PMC4967469.

By IC50 is meant the dose at which the fit gives 50% viability; fits outside the tested doses are given as limits. The AUC spans the tested range (256-fold, ending at the top dose) of the same fit: 1 means no effect, lower means more sensitive. An entry number marks a drug with two screens in the source, which often give different values.

Compound in this experiment: CS(=O)(=O)N1CCN(Cc2cc3nc(-c4cccc5[nH]ncc45)nc(N4CCOCC4)c3s2)CC1 [GDC0941]
Briefly: Viability of human cancer cell lines after 72 h of drug (GDSC screen). The conditions noted are these: screen: GDSC drug entry 1058. Here is the method: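 Human cancer cell lines in 384-well plates, medium with 10% serum, drug for 72 h over a 256-fold dose range (nine 2-fold or five 4-fold steps up to the top dose). Adherent lines were fixed and stained with the nucleic acid dye Syto60, suspension lines read with resazurin; signal relative to control wells, capped at 0 and 100%. One two-parameter sigmoid per drug and line, fitted in a mixed model over all curves with the slope shared within a line.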
Take “LS-411N (large intestine, adherent, top dose 4 µM)”: the AUC came out at 0.903 and the concentration for half-maximal inhibition (IC50) is more than 4000 nM.

Take “LS-513 (large intestine, adherent, top dose 4 µM)”: the AUC came to 0.863 and the IC50 amounted to 3670 nM.

Take “LS-1034 (large intestine, adherent, top dose 4 µM)”: the AUC is 0.96 and the IC50 was more than 4000 nM.

“LU-65 (large cell lung carcinoma, suspension, top dose 4 µM)”: the AUC was determined as 0.987 and the IC50 was more than 4000 nM.

As to “LU-134-A (small cell lung carcinoma, suspension, top dose 4 µM)”, the AUC worked out at 0.766 and the IC50 is 1570 nM.

For “LU-135 (small cell lung carcinoma, suspension, top dose 4 µM)”, the AUC is 0.839 and the IC50 was found to be 2080 nM.

Consider “LU-165 (small cell lung carcinoma, suspension, top dose 4 µM)”, for which the AUC was 0.981 and the IC50 was more than 4000 nM.

As for “LXF-289 (lung adenocarcinoma, adherent, top dose 4 µM)”, the AUC amounted to 0.65 and the IC50 was found to be 646 nM.

As for “LoVo (large intestine, adherent, top dose 4 µM)”, the AUC worked out at 0.682 and the IC50 came to 812 nM.

In the case of M059J (glioma, adherent, top dose 4 µM), the AUC was 0.94 and the IC50 is more than 4000 nM.

Turning to “MC116 (B-cell lymphoma, suspension, top dose 4 µM)”, the AUC came out at 0.999 and the IC50 is more than 4000 nM.

For “MC-CAR (haematopoietic neoplasm, suspension, top dose 4 µM)”, the AUC is 0.691 and the IC50 came out at 801 nM.

Turning to “MC-IXC (neuroblastoma, adherent, top dose 4 µM)”, the AUC stood at 0.936 and the IC50 stood at 3700 nM.

As for “MDA-MB-157 (breast, adherent, top dose 4 µM)”, the AUC was 0.876 and the half-maximal inhibitory concentration (IC50) was more than 4000 nM.

For the cell line “MDA-MB-330 (breast, adherent, top dose 4 µM)”, the AUC came to 0.772 and the IC50 stood at 1760 nM.

Regarding “MDA-MB-415 (breast, adherent, top dose 4 µM)”, the AUC is 0.756 and the IC50 turned out to be 1800 nM.

On to “MDA-MB-436 (breast, adherent, top dose 4 µM)”, for which the AUC is 0.782 and the IC50 is 2140 nM.

Take “MDST8 (large intestine, adherent, top dose 4 µM)”: the AUC amounted to 0.921 and the IC50 is more than 4000 nM.

As to “ME-1 (acute myeloid leukaemia, suspension, top dose 4 µM)”, the AUC stood at 0.986 and the IC50 was more than 4000 nM.

In the case of “ME-180 (cervix, adherent, top dose 4 µM)”, the AUC worked out at 0.684 and the IC50 amounted to 840 nM.

In the case of “MEG-01 (chronic myeloid leukaemia, suspension, top dose 4 µM)”, the AUC was found to be 0.961 and the IC50 was more than 4000 nM.

On to “MEL-HO (melanoma, adherent, top dose 4 µM)”, for which the AUC is 0.778 and the IC50 amounted to 1640 nM.

As to “MEL-JUSO (melanoma, adherent, top dose 4 µM)”, the AUC is 0.796 and the IC50 turned out to be 2130 nM.

“MES-SA (uterus, adherent, top dose 4 µM)”: the AUC is 0.825 and the IC50 came to 1940 nM.

Regarding “MFE-280 (endometrium, adherent, top dose 4 µM)”, the AUC came to 0.812 and the IC50 was determined as 2890 nM.

For “MFE-296 (endometrium, adherent, top dose 4 µM)”, the AUC is 0.942 and the IC50 is more than 4000 nM.

In the case of “MFE-319 (endometrium, adherent, top dose 2 µM)”, the AUC stood at 0.895 and the IC50 was more than 2000 nM.

In the case of “MFH-ino (soft tissue, adherent, top dose 4 µM)”, the AUC amounted to 0.701 and the IC50 is 1020 nM.

“MHH-CALL-2 (B-cell leukaemia, suspension, top dose 4 µM)”: the AUC was 0.987 and the IC50 was more than 4000 nM.

Regarding “MHH-ES-1 (Ewing sarcoma, adherent, top dose 4 µM)”, the AUC turned out to be 0.804 and the IC50 turned out to be 1970 nM.

For “MHH-NB-11 (neuroblastoma, adherent, top dose 4 µM)”, the AUC turned out to be 0.847 and the IC50 came out at 3390 nM.

In the case of “MHH-PREB-1 (B-cell leukaemia, suspension, top dose 4 µM)”, the AUC is 0.455 and the IC50 is 191 nM.

Take MKN1 (stomach, adherent, top dose 2 µM): the AUC amounted to 0.859 and the IC50 came out at 1810 nM.

With MKN7 (stomach, adherent, top dose 4 µM), the AUC was 0.745 and the IC50 was 1640 nM.

For the cell line “MKN28 (stomach, adherent, top dose 4 µM)”, the AUC stood at 0.904 and the IC50 is more than 4000 nM.

For “ML-2 (acute myeloid leukaemia, suspension, top dose 4 µM)”, the AUC came out at 0.712 and the IC50 came out at 913 nM.

For the cell line “MLMA (hairy cell leukaemia, semi-adherent, top dose 4 µM)”, the AUC is 0.921 and the IC50 is more than 4000 nM.

For the cell line “MN-60 (B-cell leukaemia, suspension, top dose 4 µM)”, the AUC was 0.878 and the IC50 is more than 4000 nM.

With “MOG-G-CCM (glioma, adherent, top dose 4 µM)”, the AUC came out at 0.792 and the IC50 amounted to 2150 nM.

As to “MOG-G-UVW (glioma, adherent, top dose 4 µM)”, the AUC was found to be 0.831 and the IC50 came out at 2450 nM.

As to “MOLM-16 (acute myeloid leukaemia, suspension, top dose 4 µM)”, the AUC stood at 0.424 and the IC50 was found to be 159 nM.

On to “MOLT-4 (lymphoblastic leukaemia, suspension, top dose 4 µM)”, for which the AUC was determined as 0.455 and the IC50 was 193 nM.

As to “MOLT-13 (T-cell lymphoblastic leukaemia, suspension, top dose 4 µM)”, the AUC turned out to be 0.926 and the IC50 was more than 4000 nM.

With “MOLT-16 (T-cell lymphoblastic leukaemia, suspension, top dose 4 µM)”, the AUC came out at 0.962 and the IC50 is more than 4000 nM.

For the cell line “MONO-MAC-6 (acute myeloid leukaemia, suspension, top dose 4 µM)”, the AUC turned out to be 0.506 and the IC50 came to 259 nM.

On to “MPP-89 (mesothelioma, adherent, top dose 4 µM)”, for which the AUC turned out to be 0.79 and the IC50 is 2400 nM.

Take “MRK-nu-1 (breast, suspension, top dose 4 µM)”: the AUC is 0.984 and the IC50 was more than 4000 nM.

For MS751 (cervix, adherent, top dose 4 µM), the AUC is 0.925 and the IC50 is more than 4000 nM.

With “MS-1 (small cell lung carcinoma, suspension, top dose 4 µM)”, the AUC was 0.877 and the IC50 turned out to be 3290 nM.
